Drawing on the supplement of paper PMC10126150, this text covers switch fluorescence ratio for 67 sequences.

For the data set, the system named is ATP. In words: switch fluorescence ratio, 500 uM ATP over buffer (Cy3 cluster intensity, sum of 5 cycles each) (fold (ratio)); higher = stronger signal-on switching upon ATP binding; sequences stand for … in TCGTCGGCAGCGTCAGATGTGTATAAGAGACAGTTTTTTTTTTTTTTTTTTTTTTTTT…TC. Conditions: aptamer strand: ATP DNA aptamer (quencher-CACCTGGGGGAGTATTGCGGAGGAAGG + anchor), 100 nM annealed; ATP concentration: 500 uM; one replicate. In short, it runs like this:
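Between each of five buffer/ATP cycles, the flow-cell was stripped with NaOH and re-annealed. Each cycle imaged Cy3-labelled switching-strand clusters, annealed to 100 nM quencher-labelled ATP aptamer on a modified Illumina MiSeq flow-cell, first in selection buffer and then after 15 min with 500 uM ATP at 22 °C. The fluorescence ratio is summed target-cycle over summed buffer-cycle Cy3 intensity per cluster, averaged per switch-domain sequence, with clusters outside 100-1000 RFU excluded.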

Sequences with one replicate were seen in a single cluster, so their values are uncertain.
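Also: ATP exposure 15 min at 22 °C before imaging.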

As for CAGATAGTAC, the switch fluorescence ratio is 1.06.

On to TGCGGAGTTG, for which the switch fluorescence ratio came to 0.99.

Consider GTTGTGACAC, for which the switch fluorescence ratio worked out at 0.993.

With TTTGATAGCT, the switch fluorescence ratio was 0.977.

With GTTTGGTCCT, the switch fluorescence ratio was 0.974.

For AATAACAGC, the switch fluorescence ratio is 0.999.

ACGCAGTGC: the switch fluorescence ratio is 1.3.

As to GCCATATAGA, the switch fluorescence ratio turned out to be 1.04.

On to CGGTTGATGA, for which the switch fluorescence ratio turned out to be 0.988.

For AGTTGGCAGC, the switch fluorescence ratio turned out to be 0.97.

For the sequence TGTTACCCCA, the switch fluorescence ratio turned out to be 1.13.

On to CTACATAGTG, for which the switch fluorescence ratio was found to be 1.03.

Regarding GGTCAGCTAG, the switch fluorescence ratio was found to be 0.99.

Consider TTCATTGGCG, for which the switch fluorescence ratio worked out at 1.06.

As for CGTTTTATTC, the switch fluorescence ratio was found to be 1.07.

As for GTTTAACATG, the switch fluorescence ratio stood at 0.968.

For TTAGCATGA, the switch fluorescence ratio was 1.02.

Consider AATATCGGTG, for which the switch fluorescence ratio was 1.06.

Consider AAGATGCAAC, for which the switch fluorescence ratio amounted to 1.05.

For the sequence AACGAAGGGC, the switch fluorescence ratio came to 1.02.

As to AGTGCACAGC, the switch fluorescence ratio came out at 0.999.

As for GACAGGGA, the switch fluorescence ratio stood at 0.982.

In the case of CCTGGACGGA, the switch fluorescence ratio was 0.989.

GCCGTTTACT: the switch fluorescence ratio is 1.04.

In the case of TATCAGGTAT, the switch fluorescence ratio was found to be 1.05.

Regarding TCCATGAGA, the switch fluorescence ratio came to 1.

ACAGGAGGG: the switch fluorescence ratio is 0.973.

For the sequence TGCATGGGCG, the switch fluorescence ratio was 0.982.

For the sequence TAGAGAGAGC, the switch fluorescence ratio was found to be 1.07.

As for TAAAATTTCC, the switch fluorescence ratio came to 1.

On to TTGTTGTTA, for which the switch fluorescence ratio was determined as 0.957.

Take GTTGCGGGGC: the switch fluorescence ratio came out at 1.02.

As to CAAGGAGAT, the switch fluorescence ratio was 1.03.

Consider ACGGATACTG, for which the switch fluorescence ratio was determined as 1.05.

CGTTTTAAAT: the switch fluorescence ratio was determined as 0.975.

With GCCTTGATGA, the switch fluorescence ratio was 0.943.

For the sequence CAATACCCGC, the switch fluorescence ratio was 1.33.

As to GATACAGGGT, the switch fluorescence ratio stood at 1.03.

Regarding CTTAACCAG, the switch fluorescence ratio turned out to be 0.963.

With CACAACAACG, the switch fluorescence ratio is 1.07.

For GGTTTAAGGA, the switch fluorescence ratio stood at 0.978.

Consider CGATGAAGCA, for which the switch fluorescence ratio came out at 0.952.

Take GCCATATTAA: the switch fluorescence ratio was 0.967.

On to AGTTCTTAAT, for which the switch fluorescence ratio worked out at 0.978.

In the case of CCCGGTGAGC, the switch fluorescence ratio worked out at 1.07.

For CAAGCTGCAG, the switch fluorescence ratio was determined as 0.986.

CAGTATCAGC: the switch fluorescence ratio was found to be 1.02.

Take ATATTACAAA: the switch fluorescence ratio amounted to 1.02.

Take CGCTGCGAGT: the switch fluorescence ratio was 0.979.

With CCTTGTTAGC, the switch fluorescence ratio was 1.1.

TGCCTTGACA: the switch fluorescence ratio came to 0.986.

Take CATCATGGGT: the switch fluorescence ratio stood at 1.01.

Take ACTAGACGGC: the switch fluorescence ratio is 1.32.

For CGCCGGTGTC, the switch fluorescence ratio worked out at 1.03.

For TTAGGCCGT, the switch fluorescence ratio was 1.02.

As for AGTAGGTACG, the switch fluorescence ratio is 0.944.

Regarding AACAAGGTCT, the switch fluorescence ratio amounted to 1.01.

As to AGTCAGACG, the switch fluorescence ratio stood at 0.972.

Take CATAATTAGA: the switch fluorescence ratio is 0.996.

Turning to CCGCGCGGTT, the switch fluorescence ratio came out at 1.04.

As for AATAAAAAC, the switch fluorescence ratio was found to be 0.977.

Turning to TTATAAGGCA, the switch fluorescence ratio was 0.964.

Consider GAAGTTTTAA, for which the switch fluorescence ratio was determined as 0.97.

CACATAGGGG: the switch fluorescence ratio was 1.14.

In the case of GCTAATTAAG, the switch fluorescence ratio turned out to be 0.98.

As for CGCCGTTGCT, the switch fluorescence ratio is 1.02.

Turning to GTCGCTTTTT, the switch fluorescence ratio came out at 1.
